# Laboratory results taken from the supplement of paper PMC11417369.
# Some of the results follow.
# System: PfSIP2 AP2 domain 1 (GST-tagged)
# Assay: gcPBM binding intensity (ln(normalized median fluorescence intensity)); higher = stronger DNA binding
# In short: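 Alexa488 anti-GST antibody, scanned at 488 nm, detected GST-tagged P. falciparum DNA-binding domains that had been expressed in E. coli and incubated for 1 h on an Agilent 4 × 180k array. The array carried primer-extended double-stranded 36-bp intergenic genomic probes and negative controls. Binding intensity is the highest Masliner-normalised natural-log median intensity across replicate spots of either orientation of each probe.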
row,Sequence,gcPBM binding intensity (ln)
1,TTTGTTAATTATAAATGTACATATTATATATATATA [XGTACX_site8870],9.08
2,ATGTTGTCAAAAAAATGTACTTACATAATATTTTCC [XGTACX_site1732],7
3,TATAAATACTTATATGTACACACATATAGATATATA [CACACA_site8819],7
4,CGCATACACCAACACACACACACATATATATATATA [CACACA_site635],9.74
5,AGAAGTCTGTAATGATGTACTGGAAAAATATAAATA [XGTACX_site8148],6.96
6,TAGATCTTATTTACAAGTACATATATACGATTCATT [XGTACX_site7578],6.97
7,ATCTAATATATATTCTGTACGTAATTAAAACCACAA [XGTACX_site3152],7.54
8,TTTTTTTTTTAAAAAACACACACCTAAACAAGATAT [CACACA_site875],7.42
9,ATATATATATATATTTGTACATATATATAATTTTTC [XGTACX_site7460],9.37
10,TATAATTGTCTTCACACACACATATATATATATATA [CACACA_site2743],9.32
11,AAAATAAAAAAAAAAGGTACACAAAAAGATGGACTG [XGTACX_site2650],6.82
12,AAAAAACGACCTTACGCACACATTATTCTAGTCTAT [CACACA_site2349],7
13,TCAAATTATATGAGTGGTACACATGTAATATTTTTA [XGTACX_site6518],6.76
14,AAAAAAATATATATTACACACATATATACATATATA [CACACA_site3125],7
15,ATATTTTGTATAATCACACACACTATTATTAAATAG [CACACA_site2612],7.09
16,TTACATTTTTTATGTTTTTTTATATTGCAAAAAAAT [CACACA_negctrl_site1050],6.93
17,ATATATATATATATATGTACTTATTAAGATTAAAAA [XGTACX_site61],9.21
18,TTAAATATAAAAAGTAGTACATTTATATTTACCATA [XGTACX_site2962],6.94
19,AAAAAAAAAAAAAAAACACACATACACCCCCACCCA [CACACA_site9117],9.07

row,Sequence,gcPBM binding intensity (ln)
1,TATAAATATAAATACACACACACATCAATACAGATA [CACACA_site5850],6.97
2,ATTAATAATATTCCTTGTACATGATTTTTCTAAATA [XGTACX_site7099],6.78
3,TGTGTTAATAGAAAAAGTACATATACATATATATAT [XGTACX_site4951],8.74
4,TGCACAGACGGACACACACACAACTAAAAAATAATG [CACACA_site5424],7.44
5,TATAATAATGCCTTTACATGCAATAATAAAGAAATA [TGCATGCA_site631],7
6,AATGAATTAATAGCTACACACGGTAACATAATAACT [CACACA_site851],6.94
7,TCTTTTGAACAAATTTGTACGTATATAAAAATATTT [XGTACX_site6547],7.14
8,ATATTTCATCTAGCTACACACATATAACAAATTACT [CACACA_site7843],7.28
9,TACATAAAAATATCACGTACATATAATCATATACTA [XGTACX_site3505],7.08
10,ACCTTTGATATATACACACACATAAAAAAAATATAT [CACACA_site6952],7.74
11,TTCTTTTTCCAATTTGCACACCACAAAATTATATAT [CACACA_site2909],8.22
12,ATAATTAATGATGTATGTACGGAATTTATATATTTG [XGTACX_site5685],6.92
13,ATAGTAATAGAATGATTGCACTTAAATTTTCCCTCT,7.33
14,GTATACATATTTATAATAATAAATGTCTTATATTTT [CACACA_negctrl_site688],6.88
15,TAATATATTAATATATGTACGTATTTTTATTAATAT [XGTACX_site5346],7.32
16,TTAAATAATTCTTTTAGTACACACGAATAAGCAGAT [XGTACX_site623],7.37
17,TATCTTATATATAAGTGTACGCAGATTCTTACGATA [XGTACX_site6058],7.8
18,ATATATATATATATATGTACATATGTCAACTGTCTA [XGTACX_site8636],9.49
19,CATACATACAAACACACACACATATATATACATACA [CACACA_site852],7.45

row,Sequence,gcPBM binding intensity (ln)
1,ATATATCAAATAGACAAACACACAAAGGAAGAGTGA [CACACA_site3922],7.02
2,TATGTATTAATGAGAACATGCAAAATAATAAACAAT [TGCATGCA_site362],7.24
3,CACAGACACGGACACACACACACACCCAGACACATA [CACACA_site4357],7.18
4,CATATACACGAACACACACACACACGCACAAAAAAA [CACACA_site6376],7.69
5,AATAATATATGGACATGTACATAATATATATTTTTT [XGTACX_site312],7.02
6,TTCATATAATTCATCTGTACATATTGATAGTATGCA [XGTACX_site6386],6.88
7,TGTTTTATTTATTAAGCACACGCGATTTAAAAAATA [CACACA_site981],6.79
8,TCAAATGTGTAATCTTGTACACATTAAAAGAAAAAA [XGTACX_site8822],6.92
9,TTTGTTCTTTTTGAAGTGCACTGAAATATAACAAAA,10.7
10,AAAAAAACACACACATATATATATATATATATATAT [GTGCAC_negctrl_site498],9.79
11,AAGAAAAAGAATAACCTTATTTCTATATACTAATTT [TGCATGCA_negctrl_site477],6.54
12,ATCAAAATTGTCATTACACACCTTTATTTTTATAAT [CACACA_site5071],7.12
13,TCCACTTAACTCAATTGTACAAAAATAAAAATTAAA [XGTACX_site855],7.17
14,ATAATATATATATATATATTATCAAATATATATATA [GTGCAC_negctrl_site346],8.45
15,TGTGTATATCGATAAAGTACATTTGAAAAGTGACTT [XGTACX_site6957],6.88
16,GTAATATGTATCCATACACACATACAGTTTATTTGC [CACACA_site6540],6.9
17,AAAAAAAACGGACACACACACATTCAATATAAAACA [CACACA_site4189],7.45
18,GTATTAATATATAATTGTACTTTTTTTTTTTTTTTT [XGTACX_site4369],7.64
19,AATAATGAATTGAAATGTACATATTTTTATTAATAC [XGTACX_site8899],7.15
